# About 180 (0.12%) of roughly 150,000 compounds were called active. The inconclusive results got no clear call from the source; some entries with a clear call stand among them for comparison. Calls come from the whole dose curve; as a rule, active = well fitted cell-killing curve with a large enough effect; inconclusive = small, poorly fitted or top-dose-only effect, or effect the other way; inactive = flat fitted curve, though single readings scatter. Potencies of inconclusive entries are doubtful fits and often do not repeat.
# Assay: GF-AFC viability counterscreen for inhibitors of alpha-synuclein gene (SNCA) expression; note: nearly all actives have a fitted effect of over 30% in size;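 for activity change, negative = cytotoxicity: 0% = DMSO-treated cells and -100% = medium-only wells without cells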
# Conditions: HEK-293-SNCA-luc viability, GF-AFC fluorescence, 24 h; activity change, negative = cytotoxicity: at 57.1 µM (top of the series) unless noted
# How it was run: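 HEK-293-SNCA-luc cells (1500/well) plated 24 h, then exposed 24 h to a dilution series; GF-AFC added 30 min at 37C, fluorescence 405/540 nm; normalised to medium-only and DMSO wells, Hill fit.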
# Potency is the fitted concentration of half-maximal effect; tags give direction and shape of the fitted curve.
SMILES,"activity change, negative = cytotoxicity",Potency
CCN1c2cc(C(=O)NCc3cccc(C(F)(F)F)c3)ccc2C(=O)N2CCCCCC21 (stereo not drawn),inactive: 6.46% [at 12.5 µM],
Cn1c(C(=O)N2CCc3c(n(CCOc4ccccc4)n(-c4ccccc4)c3=O)C2)cc2ccccc21,,"inconclusive: 25.1 µM [cytotoxic, partial curve, poor fit]"
COCC(=O)N1CCCN(CCc2ccccc2)c2ccccc21,,inactive
CCOc1ccc(CC(=O)N2CCC[C@H]2c2nc(-c3ccc(C)cc3)no2)cc1,,"inconclusive: 8.91 µM [cytotoxic, partial curve]"
CCCS(=O)(=O)NCCc1csc2nc(-c3ccc(OC)cc3)nn12,,"inconclusive: 12.6 µM [cytotoxic, partial curve, poor fit]"
COc1ccc(OC)c(-c2cc(-c3ccccc3)nc3c(C)noc23)c1,,inactive
COc1cccc(NC(CNS(=O)(=O)c2ccc(C)cc2)c2ccccc2)c1 (stereo not drawn),,"inconclusive: 31.6 µM [cytotoxic, single point]"
COc1ccccc1-c1ccnc(-c2nnc(C)n2Cc2ccccc2)c1,,inactive
COCCCNc1cc(-c2cccs2)nc2c(C)noc12,,inactive
CC(C)S(=O)(=O)Nc1ccc(F)c(C(=O)c2c[nH]c3ncc(-c4cccnc4)cc23)c1F,,"inconclusive: 29.9 µM [cytotoxic, single point]"
O=c1c2ccccc2n2c(-c3ccc(F)c(F)c3)nnc2n1CCc1ccccc1,,"inconclusive: 5.62 µM [cytotoxic, single point]"
O=C(Nc1noc2ccccc12)c1cccc(F)c1,,inactive
Cn1nccc1-c1cccc(CCOc2cnc3c(ccn3CC(=O)O)c2)c1,,inactive
COc1ccc(CN2CC3(C2)NC(=O)c2ccccc2O3)cc1,,inactive
CCN(CC)C(=O)[C@@H]1C[C@H](NC(=O)c2cc(C)no2)CN1Cc1ccco1,,"inconclusive: 28.2 µM [rising, partial curve, poor fit]"
CCOC(=O)C1=CN(CC(=O)Nc2cccc(C)c2)S(=O)(=O)N=C1C,,"inconclusive: 35.5 µM [rising, single point]"
O=[S+]([O-])(NC1CCCN(Cc2ccc(-c3cncnc3)cc2)C1)c1cccs1 (stereo not drawn),inactive: 5.55% [at 12.5 µM],
C1=C(c2cc(-c3cccc4cn[nH]c34)cn3cncc23)CCOC1,,inactive
COCCN1CCC2(CCC1=O)CN(c1ccc(C#N)cn1)CCN2C (stereo not drawn),,"inconclusive: 8.91 µM [cytotoxic, single point]"

SMILES,"activity change, negative = cytotoxicity",Potency
O=C(Nc1cccnc1Cl)c1cc(-c2ccc(Cl)cc2)on1,,"inconclusive: 12.6 µM [rising, partial curve, poor fit]"
CCc1ccccc1N1CC(c2nc3ccccc3n2Cc2cccc(C)c2)CC1=O (stereo not drawn),,"inconclusive: 3.16 µM [cytotoxic, full curve]"
COc1ccccc1Nc1c2c(nc3ccc(NC(=O)c4cccc(F)c4)cc13)CCCC2,,"inconclusive: 22.4 µM [cytotoxic, partial curve, poor fit]"
C=C1C(=O)O[C@H]2C1[C@H](OC(=O)/C(=C/CO)COC(=O)/C(C)=C/CO)CC(=C)[C@@H]1CC(=O)[C@@H](C)[C@@H]12 (stereo partly drawn),,"inconclusive: 13 µM [cytotoxic, single point]"
CN1CCC(Cn2ccc3c(N4CCOCC4)nc(-c4cccc5[nH]ccc45)cc32)CC1,,"inconclusive: 35.5 µM [cytotoxic, single point]"
CCc1ccc(CNC(=O)C2CCN(C(=O)N3CC(CC)Oc4ccc(C)cc43)CC2)cc1 (stereo not drawn),,"inconclusive: 39.8 µM [cytotoxic, partial curve, poor fit]"
COc1ccc(-c2noc(CSc3nnc(-c4ccc(Cl)cc4)n3C)n2)cc1OC,,"inconclusive: 25.1 µM [cytotoxic, single point]"
COc1ccc(CCNC(=O)Cn2cc(S(=O)(=O)Cc3cccc(Cl)c3)c3ccccc32)cc1OC,,"inconclusive: 22.4 µM [cytotoxic, single point]"
CCOC(=O)c1sc2ccccc2c1S(=O)(=O)N1CCN(c2ccccc2)CC1,,"inconclusive: 6.31 µM [rising, full curve, poor fit]"
CC(C)Oc1ccc(CN2CCc3nc(N4CCN(C)CC4)[nH]c(=O)c3CC2)cc1,,"inconclusive: 1.58 µM [cytotoxic, full curve, poor fit]"
O=C(Nc1ccc2nc(SCC(=O)N3CCCC3)sc2c1)c1ccccc1F,,"inconclusive: 39.8 µM [cytotoxic, single point]"
O=C(Nc1ccc(Cl)cc1F)c1ccccc1O,,"inconclusive: 23.8 µM [cytotoxic, partial curve, poor fit]"
Cc1noc(C)c1-c1cc2c(cc(-c3ccccc3)n2C)c(Nc2ccncn2)n1,,"inconclusive: 56.2 µM [cytotoxic, single point]"
COc1ccc(/C=C/c2nc(C#N)c(N3CCC(C)CC3)o2)cc1OC,,"inconclusive: 28.2 µM [rising, partial curve, poor fit]"
N#CC1CCN(C(=O)c2cc(-c3cccs3)c3cccn3n2)CC1,,inactive
Cc1nn(-c2ccccc2)c2sc(C(=O)Nc3cccc(O)c3)cc12,,"inconclusive: 25.1 µM [cytotoxic, partial curve, poor fit]"
CC(C)CC(=O)O[C@@H]1O[C@H](CO)[C@@H](O[C@H]2O[C@H](C)[C@@H](N[C@H]3C=C(CO)[C@@H](O[C@H]4O[C@H](CO)[C@@H](O[C@H]5O[C@H](CO)[C@@H](O[C@H]6O[C@H](CO)[C@@H](O)[C@H](O)[C@H]6O)[C@H](O)[C@H]5O)[C@H](O)[C@H]4O)[C@H](O)[C@H]3O)[C@H](O)[C@H]2O)[C@H](O)[C@H]1O,,"inconclusive: 1.42 µM [cytotoxic, single point]"
c1ccc(CN2CCNc3cc(Nc4ccc(N5CCOCC5)cc4)ncc3C2)cc1,,"inconclusive: 39.8 µM [cytotoxic, partial curve, poor fit]"
COc1cc(OC)c(Nc2c3c(nc4nc(-c5cccs5)nn24)CCCC3)cc1Cl,,"inconclusive: 39.8 µM [cytotoxic, single point]"

# — PubChem BioAssay AID1671193 (National Center for Advancing Translational Sciences (NCATS), 2021)
